Measurements from the supplement of paper PMC10126150.
Values marked as one replicate rest on one cluster of the flow cell; about a third of the high ones do not repeat.
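Also: ATP exposure 15 min at 22 °C before imaging.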

These sequences were tested on ATP (assay: switch fluorescence ratio, 500 uM ATP over buffer (Cy3 cluster intensity, sum of 5 cycles each) (fold (ratio)); higher = stronger signal-on switching upon ATP binding; sequences stand for … in TCGTCGGCAGCGTCAGATGTGTATAAGAGACAGTTTTTTTTTTTTTTTTTTTTTTTTT…TC). Details: aptamer strand: ATP DNA aptamer (quencher-CACCTGGGGGAGTATTGCGGAGGAAGG + anchor), 100 nM annealed; ATP concentration: 500 uM; one replicate.
How it was run: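 Between each of five buffer/ATP cycles, the flow-cell was stripped with NaOH and re-annealed. Each cycle imaged Cy3-labelled switching-strand clusters, annealed to 100 nM quencher-labelled ATP aptamer on a modified Illumina MiSeq flow-cell, first in selection buffer and then after 15 min with 500 uM ATP at 22 °C. The fluorescence ratio is summed target-cycle over summed buffer-cycle Cy3 intensity per cluster, averaged per switch-domain sequence, with clusters outside 100-1000 RFU excluded.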
TCTTGAGTTC gave a switch fluorescence ratio of 0.991.
With TCTTGGGGCG the switch fluorescence ratio was 0.969.
Sequence TCTTGGTCTA has a switch fluorescence ratio of 0.954.
Sequence TCTTGTATGT has a switch fluorescence ratio of 0.963.
TCTTTAGGGG showed a switch fluorescence ratio of 0.953.
In the case of TCTTTCTCTG, the switch fluorescence ratio is reported as 1.12.
Work on TCTTTGACGA yielded a switch fluorescence ratio of 0.982.
TCTTTGAGGA showed a switch fluorescence ratio of 0.976.
TCTTTGGGAA showed a switch fluorescence ratio of 2.16.
TCTTTGTCGA was tested, and the switch fluorescence ratio was 0.995.
TCTTTGTGCT gave a switch fluorescence ratio of 1.01.
TCTTTGTGTT gave a switch fluorescence ratio of 0.994.
For TCTTTTACAG, the switch fluorescence ratio was 1.01.
TGAAAATTG was tested, and the switch fluorescence ratio was 0.979.
TGAAACGGG was tested, and the switch fluorescence ratio was 0.998.
With TGAAATAGCC the switch fluorescence ratio was 1.03.
TGAAATAGTC was tested, and the switch fluorescence ratio was 0.933.
Work on TGAAATCACA yielded a switch fluorescence ratio of 1.
For TGAAATGTTC, the switch fluorescence ratio was 1.01.
For TGAAATTCCT, the switch fluorescence ratio was 1.27.
TGAACAAGCA gave a switch fluorescence ratio of 0.991.
TGAACCCATT showed a switch fluorescence ratio of 1.01.
With TGAACCTAGG the switch fluorescence ratio was 1.08.
Work on TGAACGGCAC yielded a switch fluorescence ratio of 2.1.
Sequence TGAACGTGCA has a switch fluorescence ratio of 1.03.
TGAAGACTAT showed a switch fluorescence ratio of 0.991.
Work on TGAAGAGTTC yielded a switch fluorescence ratio of 1.07.
Sequence TGAAGCACAC has a switch fluorescence ratio of 4.14.
Sequence TGAAGGAATT has a switch fluorescence ratio of 1.01.
Sequence TGAAGGGAA has a switch fluorescence ratio of 1.02.
TGAAGGTGGT was tested, and the switch fluorescence ratio was 1.02.
For TGAAGGTTCG, the switch fluorescence ratio was 1.
TGAAGTAAAT gave a switch fluorescence ratio of 0.995.
In the case of TGAAGTGGCA, the switch fluorescence ratio is reported as 1.
TGAATAAAGG was tested, and the switch fluorescence ratio was 0.972.
Sequence TGAATACCGG has a switch fluorescence ratio of 0.983.
In the case of TGAATAGGTA, the switch fluorescence ratio is reported as 1.
For TGAATAGTTA, the switch fluorescence ratio was 0.987.
TGAATATTAG was tested, and the switch fluorescence ratio was 0.986.
Work on TGAATCTCGA yielded a switch fluorescence ratio of 1.05.
Sequence TGAATGGAGT has a switch fluorescence ratio of 0.976.
With TGAATGGGCC the switch fluorescence ratio was 0.94.
Sequence TGAATTACGG has a switch fluorescence ratio of 1.07.
With TGAATTACTT the switch fluorescence ratio was 0.97.
Work on TGAATTCAAC yielded a switch fluorescence ratio of 0.989.
Sequence TGAATTGAAA has a switch fluorescence ratio of 1.
Sequence TGACAACGCC has a switch fluorescence ratio of 1.28.
TGACACAGAT was tested, and the switch fluorescence ratio was 1.07.
TGACACTCTA was tested, and the switch fluorescence ratio was 1.13.
With TGACACTTCA the switch fluorescence ratio was 1.1.
TGACAGACGG gave a switch fluorescence ratio of 1.13.
In the case of TGACAGGCT, the switch fluorescence ratio is reported as 1.02.
In the case of TGACAGTTTA, the switch fluorescence ratio is reported as 0.998.
TGACATAAAG showed a switch fluorescence ratio of 1.
With TGACCAATAA the switch fluorescence ratio was 0.983.
TGACCATTAG showed a switch fluorescence ratio of 1.01.
In the case of TGACCCCCTC, the switch fluorescence ratio is reported as 1.36.
Work on TGACCTACGC yielded a switch fluorescence ratio of 1.59.
TGACCTTTAT gave a switch fluorescence ratio of 1.05.
TGACGCAAG gave a switch fluorescence ratio of 1.14.
In the case of TGACGCCATT, the switch fluorescence ratio is reported as 1.33.
TGACGGGTCT gave a switch fluorescence ratio of 0.988.
Work on TGACGTGGAG yielded a switch fluorescence ratio of 0.968.
Work on TGACGTTATT yielded a switch fluorescence ratio of 1.01.
In the case of TGACTAAAG, the switch fluorescence ratio is reported as 1.03.
For TGACTCAGGA, the switch fluorescence ratio was 1.05.
With TGACTGGTTG the switch fluorescence ratio was 1.02.
TGACTTAGGT showed a switch fluorescence ratio of 1.06.
TGACTTTTCT was tested, and the switch fluorescence ratio was 0.971.
Work on TGAGAAAAAC yielded a switch fluorescence ratio of 1.06.
TGAGAACTCG showed a switch fluorescence ratio of 0.997.
For TGAGAATCTT, the switch fluorescence ratio was 0.983.
TGAGACCGA was tested, and the switch fluorescence ratio was 1.01.
Work on TGAGAGATGG yielded a switch fluorescence ratio of 1.04.
Sequence TGAGAGCT has a switch fluorescence ratio of 1.07.
TGAGAGGACA gave a switch fluorescence ratio of 1.01.
